# Laboratory results: PubChem BioAssay AID445 (National Center for Advancing Translational Sciences (NCATS), 2006)
# In all, about 110,000 compounds went through this assay and about 40 (0.04%) were called active. The inconclusive results got no clear call from the source; some entries with a clear call stand among them for comparison. The call rests on the fitted dose curve; in most records, active means well fitted curve in the direction sought with a large enough effect in the signal ratio (not every such curve was filed as active); inconclusive means small, poorly fitted or top-dose-only effect, or a change in a side signal; inactive means flat fitted curve, though single readings scatter; the % refers to the signal ratio. Where the call is inconclusive, the potency comes from a doubtful curve fit.
# Assay: IkB Signaling;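 on IkBa stabilization activation: 0% = basal untreated cells and 100% = reference inhibitor full response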
# Settings: ABC-DLBCL IkBa-CBG/CBR dual luciferase ratio (green luciferase fused to IkBa over red control in OCI-Ly3 lymphoma cells), 4 h; IkBa stabilization activation: at 57.1 µM (top of the series), scaled: untreated 0%, proteasome inhibitor 100% unless noted
# Excerpt: NIH Molecular Libraries Screening Centers Network [MLSCN]
# NIH Chemical Genomics Center [NCGC]
# Nuclear factor kappa-B (NF-kappa-B) plays an important role in normal B cell development and survival. Diffuse large B cell lymphoma (DLBCL) is the most commonly observed type of non-Hodgkin's lymphoma. Gene expression analysis has identified an activated B cell-like subtype of DLBCL (ABC-DLBCL) which expresses known NF-kappa-B target genes. […] However, targets upstream of IKK have been largely unexplored and so nodes upstream of IKK in the NF-kappa-B pathway remain untested due to the lack of chemical probes.
# A cell-sensor assay for I-kappa-B-alpha stabilization was developed with NIH investigator Dr. R. Eric Davis in Dr. Louis M. Staudt's laboratory. The assay uses green (CBG68) and red (CBR) emitting beetle luciferases [Chroma-Glo(TM) developed by Promega Corp.] where the green luciferase is fused to I-kappa-B-alpha and the red luciferase is present in its native state. Both luciferase genes are stably present in the OCI-Ly3 human ABC DLBCL cell line, but their expression is under the control of tetracycline-inducible promoters. Following the addition of doxycycline to induce expression of the luciferases, the green luminescence in control cultures rises only slowly because the CBG fusion partner I-kappa-B-alpha is targeted by IKK activity for rapid degradation. In contrast, green luminescence rises rapidly in the presence of proteasome inhibitors or IKK inhibitors. The rise in red luminescence of CBR is not affected by proteasome or IKK inhibitors, and serves as normalization for cell number and nonspecific effects. Compounds were screened as a concentration-titration series that ranged from 57 uM to 0.7 nM.
# NCGC Assay Protocol Summary:
# Cells were seeded in 1536-well plates at 5000 cells/3ul in IMDM medium containing 0.5% FBS, w/o phenol red, L-glutamine, 25 mM HEPES, 3 mg/ml sodium bicarbonate. After centrifugation for 1 min. at 1000 rpm, 23 nl of compounds or DMSO were delivered to each well using a pin tool. Then 1ul 80ng/ml doxycycline was dispensed into white solid 1536-well plates and the plates were incubated at 37C/5% C02 in a cell incubator for 4 hrs. Then 4 ul Chroma-Glo luminescent substrate mix (Promega) was added to each well. The plate was incubated at R.T. for 10-15 min. The plates were measured on a ViewLux plate reader for green luminescence (540/20 nm filter) and red luminescence (618/8 nm filter). The green and red luminescent signals were corrected for red and green luminescence filter overlap using previously determined filter calibration constants (determined using the procedure outlined in the Promega Technical Manual). The %Activity was determined from the ratio of corrected green/red luminescent values. Green luminescent and ratio %Activity was determined by normalizing to the difference in signal between basal cells (0% Activity) and cells incubated with 10 uM of the proteasome inhibitor MG-132 (100% Activity). Red luminescent %Activity was normalized to the difference between red luminesence in basal cells (0%Activity) and zero luminescence (-100% Activity).
# Concentration-response curves were fitted to the signals arising from the green luminescence (I-kappa-B-alpha-luciferase fusion; IkB-luc) and the red luminescence (unfused luciferase; luc) as well as the calculated ratio. The concentration-effect curves were then classified based on curve quality (r2), response magnitude and degree of measured activity. Compounds were then categorized based on their concentration-response curves for all three datasets (Ikb-luc, luc and ratio).
# Keywords: IKK, I-kappa-B, IkB, IkBa, cytotoxicity, luminescence, MLSMR, MLSCN, NIH Roadmap, qHTS, NCGC
# Potency means the concentration at half of the fitted maximal effect.
Structure (SMILES),IkBa stabilization activation,Potency
N=C1C(c2ccccc2)=C(O)C2CCc3ccccc3N12 (configuration not stated),inconclusive: 1.95% [signal inhibitor],–
CCOc1ccc(C2C(=O)N(C3CCCCC3)CC(=O)N2CCC2=CCCCC2)cc1OC (configuration not stated),inconclusive: -0.732% [signal inhibitor],–
CCOc1ccccc1NC(=O)CSC1=Nc2ccccc2C2=NC(CC(=O)NCc3ccc4c(c3)OCO4)C(=O)N12 (configuration not stated),inconclusive: 19.1% [signal inhibitor],–
Cc1nn(CC(=O)NCCc2ccccc2)c(=O)c2c1sc1ccccc12,inconclusive: 0.423% [signal inhibitor],–
COc1ccc(N(CC(=O)Nc2cc(OC)ccc2OC)S(=O)(=O)c2c(C)nn(C)c2C)cc1,inactive: -0.137%,–
O=C(/C=C\c1ccc(O)cc1)c1ccc(O)cc1O,inactive: 0.451%,–
c1ccc(-c2onc3cc4c(cc23)OCCO4)cc1,–,"inconclusive: 31.6 µM [signal inhibitor, partial curve]"
COc1ccc(-n2ccnc(NCCc3ccc(Cl)cc3)c2=O)cc1OC,inconclusive: 7.47% [signal inhibitor],–
CCN(Cc1ccccc1)Cc1c(O)ccc2oc(C)c(C(=O)Nc3ccccc3C)c12,inconclusive: 3.52% [signal inhibitor],–
CCn1cc(C(=O)N2CCN(c3ccc(OC)cc3)CC2)c2cc(OC)c(OC)cc2c1=O,inconclusive: -2.33% [signal inhibitor],–
O=C(c1cnccn1)N1CCC2(CCCN(C(c3ccccc3)c3ccccc3)C2)CC1,"inactive: 2% [at 11.4 µM, scaled: untreated 0%, proteasome inhibitor 100%]",–
CCOc1ccccc1C1C(C(=O)Nc2ccccc2)=C(C)Nc2c(C(=O)Nc3ccc(F)cc3)cnn21 (configuration not stated),inconclusive: 9.69% [signal inhibitor],–
CCOc1ccc(-c2cccc(NS(=O)(=O)c3ccccc3C(F)(F)F)c2)nn1,inconclusive: -3.43% [signal inhibitor],–
Cc1ccc(NC(=O)Cn2cc(C(=O)c3ccco3)c3ccccc32)cc1,inactive: 1.01%,–
O=S(=O)(c1ccc2nc(Nc3cccc(F)c3)ccc2c1)N1CCCC1,inconclusive: 0.359% [signal inhibitor],–
CCOC(=O)c1c(C)[nH]c(C=Nc2ccccc2)c1O,inactive: 3.15%,–
Cc1ccccc1Cn1c2ccccc2c2cnn(CC(=O)N3CCC(C)CC3)c(=O)c21,inconclusive: -0.937% [signal inhibitor],–
Cc1ccc(S(=O)(=O)NCC(Nc2cccc(Cl)c2)c2ccccc2)cc1 (configuration not stated),inconclusive: 2.09% [signal inhibitor],–
O=C(CCCn1c(=S)[nH]c2cc3c(cc2c1=O)OCO3)N1CCN(c2ccccn2)CC1,inconclusive: 1.77% [signal inhibitor],–
CCn1c(C(=O)N2CCCC(C(=O)N3CCN(c4ccccc4)CC3)C2)cc2sccc21 (configuration not stated),inconclusive: 3.38% [signal inhibitor],–
C=CCn1c(NC(C)c2cc(Cl)ccc2O)nc2ccccc21 (configuration not stated),inconclusive: -2.28% [signal inhibitor],–
CCCCn1c(=O)n(CC(=O)NCc2ccc(C)cc2)c(=O)c2c1nc(CO)n2CCC,inconclusive: 1.82% [signal inhibitor],–
COc1ccc2c(c1)cc(CNc1ccc(OC)c(OC)c1)c(=O)n2CC(=O)Nc1ccc(F)cc1,inconclusive: 1.53% [signal inhibitor],–

Structure (SMILES),IkBa stabilization activation,Potency
CCOC(=O)c1c(C)[nH]c(C)c1C(=O)Cn1nnc(-c2ccccc2C)n1,inconclusive: 7.62% [signal inhibitor],–
O=C(Nc1nc(-c2nc3ccccc3s2)cs1)c1ccc(S(=O)(=O)N2CCOCC2)cc1,inconclusive: 10.7% [signal inhibitor],–
Cc1c(C(=O)Nc2ccc(F)c(F)c2)oc2ccc(S(=O)(=O)N3CCCCC3)cc12,inconclusive: 5.84% [signal inhibitor],–
COc1ccc(N2CCN(C(=O)CCc3c(C)nc4c(-c5ccccc5)c(C)nn4c3C)CC2)cc1,inconclusive: -0.441% [signal inhibitor],–
CC1=C(C(N)=O)C(c2ccc(C(C)C)cc2)n2nc(SCc3ccccc3)nc2N1 (configuration not stated),inconclusive: 2.1% [signal inhibitor],–
O=S(=O)(c1ccc(Br)s1)N1CCN(c2ccccn2)CC1,inconclusive: 6.76% [signal inhibitor],–
CCOc1ccc(S(=O)(=O)N(CC(=O)Nc2cccnc2)c2ccccc2)cc1,–,"inconclusive: 31.6 µM [signal inhibitor, single point]"
Cc1cc(N2CCN(C)CC2)nc2ccc(NC(=O)Nc3ccccc3Br)cc12,inactive: 0.773%,–
CCCNC(=O)Cc1ncn[nH]1,inactive: 0.47%,–
CC(=O)c1ccc(Nc2nc(C)nc3c2oc2ccccc23)cc1,inactive: -0.293%,–
COc1ccc(CNC(=O)CCc2cn(Cc3cc(C)ccc3C)c3ccccc23)cc1OC,inconclusive: 1.99% [signal inhibitor],–
CCCOc1ccc(-c2nc3ccccc3c(=O)o2)cc1,inactive: 63.3%,–
O=C(Cn1ccn(-c2cccc(Cl)c2)c(=O)c1=O)NCCc1ccccc1,inconclusive: 2.57% [signal inhibitor],–
FC(F)(F)c1ccccc1-c1cncnc1-n1ccnc1,"inactive: -0.133% [at 11.4 µM, scaled: untreated 0%, proteasome inhibitor 100%]",–
Cc1nc(NCc2ccccc2)[nH]c(=O)c1CCC(C)C,inactive: -3.44%,–
COc1cccc(NC(=O)CSc2cc(=O)n(C)c3ccc(Cl)cc23)c1,inconclusive: 1.18% [signal inhibitor],–
CCCCNC(=O)C1CCN(C(=O)N2CC(C)Oc3ccc(Cl)cc32)CC1 (configuration not stated),inconclusive: 1.2% [signal inhibitor],–
COc1ccccc1-c1nnc2sc(-c3cnccn3)nn12,inactive: 11.4%,–
CCOc1ccccc1NC(=O)Cc1coc2c(C)c(C)ccc12,inconclusive: 6.16% [signal inhibitor],–
Cc1noc(C)c1CSc1nc2sc(C)c(C)c2c(=O)n1C1CCCC1,inactive: 0.639%,–
COc1ccc(NC(=O)c2c(C(=O)Nc3ccccc3)sc3nc(C)cc(=O)n23)cc1,–,inconclusive: 12.6 µM [signal inhibitor]
COc1ccc(OCC(=O)Nc2cccc3cccnc23)cc1,inconclusive: 0.904% [signal inhibitor],–
N#C/C(=C\c1ccc(F)cc1)C(=O)NCC1CCCO1 (configuration not stated),inconclusive: 1.46% [signal inhibitor],–

Structure (SMILES),IkBa stabilization activation,Potency
O=C(O)/C=C\C(=O)Nc1ccccn1,"inactive: 0.27% [at 11.4 µM, scaled: untreated 0%, proteasome inhibitor 100%]",–
Cn1cnc(S(=O)(=O)N2CCCC(C(=O)NCc3ccccc3Cl)C2)c1 (configuration not stated),inconclusive: -0.0688% [signal activator],–
Cc1cccc(N2CCN(C(=O)c3cc4c(=O)n(C)c5ccccc5c4n3C)CC2C)c1 (configuration not stated),inconclusive: 6.53% [signal inhibitor],–
Cc1ccc(CCNC(=O)C(CC(C)C)NS(=O)(=O)c2ccc3c(c2)oc(=O)n3C)cc1 (configuration not stated),inactive: 1.49%,–
COC(=O)c1ccc(NC(=O)CCc2c(C)nc3c(c(C)nn3-c3ccc(C)cc3)c2C)cc1,inconclusive: 2.88% [signal inhibitor],–
COc1ccccc1-c1cc(C(=O)NCc2cccs2)no1,–,"inconclusive: 0.2 µM [signal inhibitor, full curve]"
CCOC(=O)C1CCN(c2c(C(=O)c3ccc(OCC)cc3)cnc3ccc(OC)cc23)CC1,inconclusive: 5.69% [signal inhibitor],–
Oc1c(C(c2ccccc2F)N2CCOCC2)sc2nc(-c3ccco3)nn12 (configuration not stated),inactive: -2.76%,–
CCN(c1ccccc1)S(=O)(=O)c1ccc2[nH]cc(C(=O)NC3CCCCC3)c(=O)c2c1,inconclusive: -5.54% [signal inhibitor],–
CCOC(=O)N1CCN(C(=O)CSc2nnc(-c3cccc(OC)c3)o2)CC1,inconclusive: 6.93% [signal inhibitor],–
COc1c(C)cc(S(=O)(=O)Nc2cccc(-c3ccc(N4CCOCC4)nn3)c2)c(C)c1C,inconclusive: 4.39% [signal inhibitor],–
COc1ccc(OCc2nnc3n2N=C(c2ccc(Br)cc2)CS3)cc1,inconclusive: 2.46% [signal inhibitor],–
Nc1nc(NCc2cccs2)nn1-c1ccccc1,inconclusive: 14.2% [signal inhibitor],–
O=C(COC(=O)c1cc2ccccc2o1)c1ccccc1,inconclusive: 10.6% [signal inhibitor],–
COc1ccc(-n2c(=O)c3ccccc3n(CC(=O)NCCc3ccccc3)c2=O)c(OC)c1,inconclusive: 0.913% [signal inhibitor],–
Cc1ccc(NC(=O)CCc2c(C)nc3c(-c4ccccc4)c(C)nn3c2C)c(C)c1,inconclusive: 10.7% [signal inhibitor],–
Cc1cccc(-n2cc(-c3ccccc3)c3c(NC(C)C)ncnc32)c1,inconclusive: 5.67% [signal inhibitor],–
CC1CCN(S(=O)(=O)c2cn(CC(=O)Nc3ccc(F)c(Cl)c3)c(=O)c3ccccc23)CC1,inconclusive: 8.51% [signal inhibitor],–
O=C(CSc1nccn1-c1cccc(Cl)c1)Nc1cccc(C(F)(F)F)c1,inconclusive: 0.139% [signal inhibitor],–
O=C(Nc1ccccc1N1CCN(C(=O)c2ccccc2)CC1)c1ccc2c(c1)OCO2,inconclusive: 1.44% [signal inhibitor],–
CCCN1C(=O)C(O)(CC(=O)c2ccc(CC)cc2)c2cc(Br)ccc21 (configuration not stated),inconclusive: 2.4% [signal inhibitor],–
